# Measurements published in the supplement of paper PMC8728848.
# The list shows a part of the results.
# B1: rCnSL-A (Clitocybe nebularis) (protein)
# chain: VNPNLPGPNDVFVGFRGTNNIVGAIYEKDGIKDTPLNNGADAEMGPGSYITDGLFTARIFASGSAGNNPGTTATVCKIYASGVQWRGAPKGYIPVAYFGNGPTAEQRRQTYLRTLGLPGTAIRFGNLNTNPGQGPTAPRQMVVPPGPLRSLLKASCFPAADTRLPQTLHYFEKRVDWNIITAADSQTWGH
# Tests used:
# Test in all cases: glycan array binding signal (z-score within array); higher = stronger binding
# Settings in all cases: glycan notation: IUPAC condensed, linker removed
# [1] = molecular target: Man(a1-2)Man(a1-3)[Man(a1-2)Man(a1-6)]Man(a1-6)[Man(a1-2)Man(a1-2)Man(a1-3)]Man
# Summary of the method: (§1)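 Columns mapping to the same glycan were averaged after glycan names were converted to IUPAC-condensed notation. The data come from 3228 arrays in the Consortium for Functional Glycomics database, limited to those with an available protein sequence. Binding is reported as a within-array Z-score averaged across arrays of one protein sequence and across linkers.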
# [2] = molecular target: Man(a1-2)Man(a1-3)[Man(a1-2)Man(a1-6)]Man(a1-6)[Man(a1-2)Man(a1-2)Man(a1-3)]Man(b1-4)GlcNAc(b1-4)GlcNAc
# Summary of the method: as §1
# [3] = molecular target: Man(a1-2)Man(a1-3)[Man(a1-6)]Man(a1-6)[Man(a1-2)Man(a1-3)]Man(b1-4)GlcNAc(b1-4)GlcNAc
# Summary of the method: as §1
# [4] = molecular target: Man(a1-2)Man(a1-6)[Man(a1-3)]Man(a1-6)[Man(a1-2)Man(a1-2)Man(a1-3)]Man
# Summary of the method: as §1
# [5] = molecular target: Man(a1-2)Man(a1-6)[Man(a1-3)]Man(a1-6)[Man(a1-2)Man(a1-2)Man(a1-3)]Man(b1-4)GlcNAc(b1-4)GlcNAc
# Summary of the method: as §1
# [6] = molecular target: Man(a1-3)[Man(a1-6)]Man
# Summary of the method: as §1
# [7] = molecular target: Man(a1-3)[Man(a1-6)]Man(a1-6)[Man(a1-2)Man(a1-3)]Man(b1-4)GlcNAc(b1-4)GlcNAc
# Summary of the method: as §1
# [8] = molecular target: Man(a1-3)[Man(a1-6)]Man(a1-6)[Man(a1-3)]Man
# Summary of the method: as §1
# [9] = molecular target: Man(a1-3)[Man(a1-6)]Man(a1-6)[Man(a1-3)]Man(b1-4)GlcNAc(b1-4)GlcNAc
# Summary of the method: as §1
# [10] = molecular target: Man(a1-3)[Man(a1-6)]Man(b1-4)GlcNAc(b1-4)GlcNAc
# Summary of the method: as §1
# [11] = molecular target: Man(a1-3)[Man(a1-6)]Man(b1-4)GlcNAc(b1-4)[Fuc(a1-6)]GlcNAc
# Summary of the method: as §1
# [12] = molecular target: Man(a1-6)Man
# Summary of the method: as §1
# [13] = molecular target: Man(b1-4)GlcNAc
# Summary of the method: as §1
# [14] = molecular target: MurNAc(b1-4)GlcNAc
# Summary of the method: as §1
# [15] = molecular target: Neu5Ac(a2-3)Gal
# Summary of the method: as §1
# [16] = molecular target: Neu5Ac(a2-3)Gal(b1-3)GalNAc
# Summary of the method: as §1
# [17] = molecular target: Neu5Ac(a2-3)Gal(b1-3)GalNAc(b1-3)Gal(a1-4)Gal(b1-4)Glc
# Summary of the method: as §1
# [18] = molecular target: Neu5Ac(a2-3)Gal(b1-3)GalNAc(b1-4)[Neu5Ac(a2-3)]Gal(b1-4)Glc
# Summary of the method: as §1
# [19] = molecular target: Neu5Ac(a2-3)Gal(b1-3)GalNAc(b1-4)[Neu5Ac(a2-8)Neu5Ac(a2-3)]Gal(b1-4)Glc
# Summary of the method: as §1
# [20] = molecular target: Neu5Ac(a2-3)Gal(b1-3)GalNAc6S
# Summary of the method: as §1
# [21] = molecular target: Neu5Ac(a2-3)Gal(b1-3)GlcNAc
# Summary of the method: as §1
# [22] = molecular target: Neu5Ac(a2-3)Gal(b1-3)GlcNAc(b1-2)Man
# Summary of the method: as §1
# [23] = molecular target: Neu5Ac(a2-3)Gal(b1-3)GlcNAc(b1-2)Man(a1-3)[GlcNAc(b1-4)][Neu5Ac(a2-3)Gal(b1-3)GlcNAc(b1-2)Man(a1-6)]Man(b1-4)GlcNAc(b1-4)GlcNAc
# Summary of the method: as §1
# [24] = molecular target: Neu5Ac(a2-3)Gal(b1-3)GlcNAc(b1-2)Man(a1-3)[Neu5Ac(a2-3)Gal(b1-3)GlcNAc(b1-2)Man(a1-6)]Man(b1-4)GlcNAc(b1-4)GlcNAc
# Summary of the method: as §1
# [25] = molecular target: Neu5Ac(a2-3)Gal(b1-3)GlcNAc(b1-2)[Neu5Ac(a2-3)Gal(b1-3)GlcNAc(b1-4)]Man(a1-6)[Neu5Ac(a2-3)Gal(b1-3)GlcNAc(b1-2)Man(a1-3)]Man(b1-4)GlcNAc(b1-4)GlcNAc
# Summary of the method: as §1
# [26] = molecular target: Neu5Ac(a2-3)Gal(b1-3)GlcNAc(b1-3)Gal(b1-3)GlcNAc
# Summary of the method: as §1
# [27] = molecular target: Neu5Ac(a2-3)Gal(b1-3)GlcNAc(b1-3)Gal(b1-4)GlcNAc
# Summary of the method: as §1
# [28] = molecular target: Neu5Ac(a2-3)Gal(b1-3)GlcNAc(b1-3)GalNAc
# Summary of the method: as §1
# [29] = molecular target: Neu5Ac(a2-3)Gal(b1-3)GlcNAc(b1-4)Gal(b1-4)Glc
# Summary of the method: as §1
# [30] = molecular target: Neu5Ac(a2-3)Gal(b1-3)GlcNAc(b1-6)GalNAc
# Summary of the method: as §1
# [31] = molecular target: Neu5Ac(a2-3)Gal(b1-3)GlcNAc6S
# Summary of the method: as §1
# [32] = molecular target: Neu5Ac(a2-3)Gal(b1-3)[Fuc(a1-4)]GlcNAc
# Summary of the method: as §1
# [33] = molecular target: Neu5Ac(a2-3)Gal(b1-3)[Fuc(a1-4)]GlcNAc(b1-3)Gal(b1-3)[Fuc(a1-4)]GlcNAc
# Summary of the method: as §1
# [34] = molecular target: Neu5Ac(a2-3)Gal(b1-3)[Fuc(a1-4)]GlcNAc(b1-3)Gal(b1-4)[Fuc(a1-3)]GlcNAc
# Summary of the method: as §1
# [35] = molecular target: Neu5Ac(a2-3)Gal(b1-3)[GlcNAc(b1-6)]GalNAc
# Summary of the method: as §1
# [36] = molecular target: Neu5Ac(a2-3)Gal(b1-3)[Neu5Ac(a2-6)]GalNAc
# Summary of the method: as §1
# [37] = molecular target: Neu5Ac(a2-3)Gal(b1-3)[Neu5Ac(a2-6)]GlcNAc(b1-3)[Fuc(a1-3)[Gal(b1-4)]GlcNAc(b1-6)]Gal(b1-4)Glc
# Summary of the method: as §1
# [38] = molecular target: Neu5Ac(a2-3)Gal(b1-3)]Neu5Ac(a2-3)Gal(b1-4)]GlcNAc
# Summary of the method: as §1
# [39] = molecular target: Neu5Ac(a2-3)Gal(b1-4)Glc
# Summary of the method: as §1
# [40] = molecular target: Neu5Ac(a2-3)Gal(b1-4)GlcNAc
# Summary of the method: as §1
# [41] = molecular target: Neu5Ac(a2-3)Gal(b1-4)GlcNAc(b1-2)Man
# Summary of the method: as §1
# [42] = molecular target: Neu5Ac(a2-3)Gal(b1-4)GlcNAc(b1-2)Man(a1-3)[GlcNAc(b1-4)][Neu5Ac(a2-3)Gal(b1-4)GlcNAc(b1-2)Man(a1-6)]Man(b1-4)GlcNAc(b1-4)GlcNAc
# Summary of the method: as §1
# [43] = molecular target: Neu5Ac(a2-3)Gal(b1-4)GlcNAc(b1-2)Man(a1-3)[Neu5Ac(a2-3)Gal(b1-4)GlcNAc(b1-2)Man(a1-6)]Man(b1-4)GlcNAc(b1-4)GlcNAc
# Summary of the method: as §1
# [44] = molecular target: Neu5Ac(a2-3)Gal(b1-4)GlcNAc(b1-2)Man(a1-3)[Neu5Ac(a2-3)Gal(b1-4)GlcNAc(b1-2)Man(a1-6)]Man(b1-4)GlcNAc(b1-4)[Fuc(a1-6)]GlcNAc
# Summary of the method: as §1
# [45] = molecular target: Neu5Ac(a2-3)Gal(b1-4)GlcNAc(b1-2)Man(a1-3)[Neu5Ac(a2-6)Gal(b1-4)GlcNAc(b1-2)Man(a1-6)]Man(b1-4)GlcNAc(b1-4)GlcNAc
# Summary of the method: as §1
binder,measurement,setting,value
B1,glycan array binding signal (z-score),[1],-0.064
same,glycan array binding signal (z-score),[2],0.008
same,glycan array binding signal (z-score),[3],-0.116
same,glycan array binding signal (z-score),[4],-0.251
same,glycan array binding signal (z-score),[5],-0.138
same,glycan array binding signal (z-score),[6],-0.228
same,glycan array binding signal (z-score),[7],0.44
same,glycan array binding signal (z-score),[8],-0.221
same,glycan array binding signal (z-score),[9],-0.237
same,glycan array binding signal (z-score),[10],-0.208
same,glycan array binding signal (z-score),[11],-0.101
same,glycan array binding signal (z-score),[12],-0.289
same,glycan array binding signal (z-score),[13],-0.086
same,glycan array binding signal (z-score),[14],-0.236
same,glycan array binding signal (z-score),[15],-0.301
same,glycan array binding signal (z-score),[16],-0.221
same,glycan array binding signal (z-score),[17],-0.183
same,glycan array binding signal (z-score),[18],-0.217
same,glycan array binding signal (z-score),[19],-0.112
same,glycan array binding signal (z-score),[20],-0.234
same,glycan array binding signal (z-score),[21],-0.217
same,glycan array binding signal (z-score),[22],-0.19
same,glycan array binding signal (z-score),[23],-0.16
same,glycan array binding signal (z-score),[24],0.866
same,glycan array binding signal (z-score),[25],-0.136
same,glycan array binding signal (z-score),[26],-0.25
same,glycan array binding signal (z-score),[27],-0.231
same,glycan array binding signal (z-score),[28],-0.161
same,glycan array binding signal (z-score),[29],-0.2
same,glycan array binding signal (z-score),[30],-0.235
same,glycan array binding signal (z-score),[31],-0.024
same,glycan array binding signal (z-score),[32],-0.233
same,glycan array binding signal (z-score),[33],-0.21
same,glycan array binding signal (z-score),[34],-0.191
same,glycan array binding signal (z-score),[35],-0.263
same,glycan array binding signal (z-score),[36],-0.305
same,glycan array binding signal (z-score),[37],-0.182
same,glycan array binding signal (z-score),[38],-0.201
same,glycan array binding signal (z-score),[39],-0.078
same,glycan array binding signal (z-score),[40],-0.381
same,glycan array binding signal (z-score),[41],-0.112
same,glycan array binding signal (z-score),[42],-0.207
same,glycan array binding signal (z-score),[43],-0.343
same,glycan array binding signal (z-score),[44],-0.158
same,glycan array binding signal (z-score),[45],-0.25
